Results reported in the antibiotic and cytotoxicity screens of Wong et al. (2023).
The other results are listed elsewhere or left out.

Tested on: HepG2
Experiment: cytotoxicity call (relative viability < 0.9)
Conditions: 10 µM

Which cytotoxicity call does the source give for `C[C@@H]1CN([C@H](C)CO)C(=O)c2cc(NC(=O)CCN3CCOCC3)ccc2O[C@H]1CN(C)S(=O)(=O)c1ccccc1` here?
The cytotoxicity call was “inactive”.

How did the cytotoxicity call turn out when `COCC#Cc1cnc2c(c1)C(=O)N([C@H](C)CO)C[C@@H](C)[C@@H](CN(C)C(C)=O)O2` was run?
The cytotoxicity call was “inactive”.

How did the cytotoxicity call turn out when `CC(C)(C)[S@](=O)N1Cc2cc(C(=O)NCCc3ccncc3)nc(-c3cccc(-c4cccc(C#N)c4)c3)c2[C@@H]1CCO` was run?
Its cytotoxicity call is “inactive”.

How did the cytotoxicity call turn out when `Cc1noc(C)c1NC(=O)N(C)C[C@H]1Oc2c(NS(=O)(=O)c3ccccc3)cccc2C(=O)N([C@@H](C)CO)C[C@@H]1C` was run?
Its cytotoxicity call is “inactive”.

For `CN(C)C(=O)C[C@@H]1CC[C@H]2[C@@H](COc3ccc(NS(=O)(=O)c4cccc(F)c4)cc3C(=O)N2C)O1`, which cytotoxicity call is on record?
Its cytotoxicity call is “inactive”.

For `C[C@H]1CN([C@@H](C)CO)C(=O)c2cccc(NC(=O)C3CC3)c2O[C@H]1CN(C)C(=O)Nc1ccc2c(c1)OCO2`, which cytotoxicity call is on record?
Its cytotoxicity call is “inactive”.

With `C=c1nc(C)sc1=C1NN=C(N)O1` as the molecule, how does the cytotoxicity call read?
Its cytotoxicity call is “inactive”.

How did the cytotoxicity call turn out when `C[C@@H]1CCCCO[C@@H](CN(C)CC2CC2)[C@H](C)CN([C@@H](C)CO)C(=O)c2cc(NC(=O)c3ccccc3)ccc2O1` was run?
Its cytotoxicity call is “inactive”.

Which cytotoxicity call does the source give for `C[C@@H]1CCCCO[C@@H](CN(C)CC2CCCCC2)[C@@H](C)CN([C@@H](C)CO)C(=O)c2cc(NS(=O)(=O)c3ccccc3)ccc2O1` here?
Its cytotoxicity call is “inactive”.

With `O=C(NCC(F)(F)F)c1cc2c(c(-c3cccc(-c4ccccc4F)c3)n1)[C@@H](CCO)N(C(=O)CC1CC1)C2` as the molecule, how does the cytotoxicity call read?
Its cytotoxicity call is “inactive”.

With `C[C@@H](NC(=O)C[C@@H]1C=C[C@H](NC(=O)CN2CCOCC2)[C@@H](CO)O1)c1ccccc1` as the molecule, how does the cytotoxicity call read?
The cytotoxicity call was “inactive”.

How did the cytotoxicity call turn out when `C[C@H](CO)N1C[C@H](C)[C@H](CN(C)C(=O)c2ccccc2)OCCCC[C@H](C)Oc2ccc(NC(=O)Nc3ccc(C(F)(F)F)cc3)cc2C1=O` was run?
Its cytotoxicity call is “inactive”.

For `C[C@H](CO)N1C[C@H](C)[C@H](CN(C)S(=O)(=O)c2cn(C)cn2)Oc2ccc(NC(=O)CCC(F)(F)F)cc2CC1=O`, which cytotoxicity call is on record?
Its cytotoxicity call is “inactive”.

Which cytotoxicity call does the source give for `CC(C)(O)C#Cc1ccc([C@H]2[C@@H](CO)N3CCCCN(S(C)(=O)=O)C[C@H]23)cc1` here?
The cytotoxicity call was “inactive”.

For `CC(C)NC(=O)N[C@@H]1CC[C@@H](CCN)O[C@H]1CO`, which cytotoxicity call is on record?
The cytotoxicity call was “inactive”.

Which cytotoxicity call does the source give for `CO[C@@H]1CN(C)C(=O)c2cc(NS(=O)(=O)CC(F)(F)F)ccc2OC[C@H](C)N(Cc2ccccn2)C[C@@H]1C` here?
The cytotoxicity call was “inactive”.

How did the cytotoxicity call turn out when `CCCCCCc1ccc(O)cc1O.Nc1c2ccccc2nc2ccccc12` was run?
The cytotoxicity call was “active”.

`CC(C)(C)c1nc(-c2cccc(NS(=O)(=O)c3c(F)cccc3F)c2F)c(-c2ccnc(N)n2)s1` was tested. Which cytotoxicity call did it give?
The cytotoxicity call was “inactive”.

For `C[C@@H]1COC(=O)N1`, which cytotoxicity call is on record?
Its cytotoxicity call is “inactive”.

`CCN1C(=O)CO[C@H]2CN(C(=O)C3CCOCC3)C[C@@H]21` was tested. Which cytotoxicity call did it give?
The cytotoxicity call was “inactive”.

With `O=C(CN1CCOCC1)NCC[C@H]1CC[C@@H](NS(=O)(=O)c2ccc(Cl)cc2)[C@H](CO)O1` as the molecule, how does the cytotoxicity call read?
The cytotoxicity call was “inactive”.

With `CN1CCN(C(=O)C[C@@H]2C[C@H]3c4cc(NS(=O)(=O)c5ccc(F)cc5)ccc4O[C@H]3[C@@H](CO)O2)CC1` as the molecule, how does the cytotoxicity call read?
The cytotoxicity call was “inactive”.

With `C[C@H](CO)N1C[C@H](C)[C@@H](CN(C)Cc2ccc(Cl)c(Cl)c2)Oc2ccc(NC(=O)NC3CCCCC3)cc2CC1=O` as the molecule, how does the cytotoxicity call read?
The cytotoxicity call was “inactive”.

How did the cytotoxicity call turn out when `C[C@@H]1CN([C@@H](C)CO)C(=O)c2cc(NS(=O)(=O)c3ccccc3)ccc2O[C@@H](C)CCCCO[C@@H]1CN(C)C(=O)C1CCCCC1` was run?
Its cytotoxicity call is “inactive”.

`C[C@@H]1CN([C@H](C)CO)C(=O)Cc2cc(NS(=O)(=O)c3cn(C)cn3)ccc2O[C@@H]1CN(C)S(=O)(=O)c1ccc(Cl)cc1` was tested. Which cytotoxicity call did it give?
Its cytotoxicity call is “inactive”.

Which cytotoxicity call does the source give for `COc1ccc(NC(=O)N(C)C[C@H]2OCCCC[C@@H](C)Oc3ccc(NS(=O)(=O)c4c(C)noc4C)cc3C(=O)N([C@H](C)CO)C[C@@H]2C)cc1` here?
The cytotoxicity call was “inactive”.

`Cc1noc(C)c1S(=O)(=O)N(C)C[C@@H]1Oc2c(NS(=O)(=O)c3cccs3)cccc2C(=O)N([C@H](C)CO)C[C@@H]1C` was tested. Which cytotoxicity call did it give?
Its cytotoxicity call is “inactive”.

With `C[C@H]1CCCCO[C@@H](CN(C)S(=O)(=O)c2cn(C)cn2)[C@@H](C)CN([C@@H](C)CO)C(=O)c2cc(NS(=O)(=O)c3cccs3)ccc2O1` as the molecule, how does the cytotoxicity call read?
Its cytotoxicity call is “inactive”.

`C[C@@H]1CN([C@@H](C)CO)S(=O)(=O)c2ccc(C3=CCCC3)cc2O[C@@H]1CN(C)S(=O)(=O)c1cn(C)cn1` was tested. Which cytotoxicity call did it give?
The cytotoxicity call was “inactive”.

Which cytotoxicity call does the source give for `Cc1ccc(-n2cnc3cc(NCc4cccs4)ccc32)cc1` here?
Its cytotoxicity call is “inactive”.

How did the cytotoxicity call turn out when `C[C@@H]1CN([C@H](C)CO)C(=O)c2cc(NC(=O)Nc3cccc4ccccc34)ccc2O[C@@H](C)CCCCO[C@H]1CN(C)Cc1ccc(C(=O)O)cc1` was run?
The cytotoxicity call was “inactive”.

With `C[C@H](CO)N1C[C@H](C)[C@H](CN(C)Cc2ccc(Cl)c(Cl)c2)Oc2ccc(NC(=O)Nc3ccc4c(c3)OCO4)cc2C1=O` as the molecule, how does the cytotoxicity call read?
The cytotoxicity call was “inactive”.

How did the cytotoxicity call turn out when `CN(C)CCCNC(=O)C[C@H]1CC[C@H]2[C@@H](COC[C@@H](O)CN2C(=O)c2cc(Cl)cc(Cl)c2)O1` was run?
Its cytotoxicity call is “inactive”.

How did the cytotoxicity call turn out when `COCCNC(=O)C[C@H]1CC[C@H](NS(=O)(=O)c2ccc(C)cc2)[C@@H](CO)O1` was run?
The cytotoxicity call was “inactive”.

`Cc1ccc(S(=O)(=O)Nc2ccc3c(c2)CC(=O)N([C@@H](C)CO)C[C@H](C)[C@@H](CN(C)CC2CC2)O3)cc1` was tested. Which cytotoxicity call did it give?
The cytotoxicity call was “inactive”.

`C[C@@H]1CCCCO[C@H](CN(C)C(=O)c2ccccc2)[C@@H](C)CN([C@H](C)CO)C(=O)c2cc(NC(=O)Nc3ccc(C(F)(F)F)cc3)ccc2O1` was tested. Which cytotoxicity call did it give?
Its cytotoxicity call is “inactive”.

`CC1CCN(C(=O)N2c3ccccc3Sc3ccccc32)CC1` was tested. Which cytotoxicity call did it give?
The cytotoxicity call was “inactive”.

`Cc1noc(C)c1NC(=O)Nc1ccc2c(c1)C(=O)N([C@@H](C)CO)C[C@H](C)[C@H](CN(C)C(=O)NC1CCCCC1)OCCCC[C@@H](C)O2` was tested. Which cytotoxicity call did it give?
Its cytotoxicity call is “inactive”.

`OCc1c[nH]c2ccccc12` was tested. Which cytotoxicity call did it give?
Its cytotoxicity call is “active”.

For `Cn1cnnc1Sc1c([N+](=O)[O-])ncn1C`, which cytotoxicity call is on record?
The cytotoxicity call was “inactive”.
